Measurements: the antibiotic and cytotoxicity screens of Wong et al. (2023)
This is one part of the list.

How the values were obtained:
[1] = tested on: HSkMC (human skeletal muscle cells); experiment: cytotoxicity call (relative viability < 0.9); conditions: 10 µM
[2] = tested on: HepG2; experiment: cytotoxicity call (relative viability < 0.9); conditions: 10 µM
[3] = tested on: S. aureus RN4220; experiment: growth inhibition call (relative growth <= 0.2); conditions: 50 µM

| SMILES | cytotoxicity call [1] | cytotoxicity call [2] | growth inhibition call [3] |
| --- | --- | --- | --- |
| C[C@H](CO)N1C[C@H](C)[C@H](CN(C)S(=O)(=O)c2ccccc2)OCCCC[C@H](C)Oc2ccc(NS(=O)(=O)c3ccc(Cl)cc3)cc2C1=O | inactive | inactive | inactive |
| CCNC(=O)C[C@@H]1CC[C@H](NC(=O)C2CC2)[C@H](CO)O1 | inactive | inactive | inactive |
| COc1ccc(NC(=O)N(C)C[C@@H]2Oc3c(NC(=O)Nc4cccc5ccccc45)cccc3C(=O)N([C@H](C)CO)C[C@H]2C)cc1 | inactive | inactive | inactive |
| C[C@@H]1CN([C@@H](C)CO)C(=O)c2ccccc2-c2ccccc2CO[C@H]1CN(C)S(=O)(=O)c1cn(C)cn1 | inactive | inactive | inactive |
| O=C(C[C@H]1C[C@@H]2c3cc(NC(=O)NC4CCCC4)ccc3O[C@@H]2[C@H](CO)O1)NCCN1CCCCC1 | inactive | inactive | inactive |
| C[C@@H]1CN([C@@H](C)CO)C(=O)c2c(c3ccccc3n2C)-c2ccccc2CO[C@@H]1CN(C)Cc1cccc(O)c1 | inactive | inactive | inactive |
| C[C@@H]1CCCCO[C@H](CN(C)S(=O)(=O)c2ccc(F)cc2)[C@@H](C)CN([C@H](C)CO)C(=O)c2cc(NS(=O)(=O)c3cn(C)cn3)ccc2O1 | inactive | inactive | inactive |
| C[C@H](CO)N1C[C@H](C)[C@H](CN(C)S(=O)(=O)c2ccc(Cl)cc2)OCCCC[C@H](C)Oc2ccc(NC(=O)Nc3ccc4c(c3)OCO4)cc2C1=O | inactive | inactive | inactive |
| C[C@H]1CCCCO[C@H](CN(C)C(=O)Nc2ccccc2)[C@@H](C)CN([C@@H](C)CO)C(=O)c2cc(NC(=O)Nc3ccc(C(F)(F)F)cc3)ccc2O1 | inactive | inactive | inactive |
| C[C@H]1CN([C@@H](C)CO)S(=O)(=O)c2ccc(C#CC3CC3)cc2O[C@@H]1CN(C)C(=O)C1CCCCC1 | inactive | inactive | inactive |
| C[C@H](CO)N1C[C@H](C)[C@H](CN(C)C(=O)Nc2ccc(C(F)(F)F)cc2)Oc2ccc(NC(=O)Nc3ccccc3)cc2CC1=O | inactive | inactive | inactive |
| C[C@H](CO)N1C[C@H](C)[C@@H](CN(C)C(=O)Nc2ccc3c(c2)OCO3)Oc2ncc(C#CC3(O)CCCC3)cc2C1=O | inactive | inactive | inactive |
| CO[C@H]1CN(C)C(=O)c2ccc(NC(=O)C3CC3)cc2OC[C@@H](C)N(C(=O)Cc2ccccn2)C[C@@H]1C | inactive | inactive | inactive |
| CO[C@H]1CC[C@@H]2[C@H]1OCCN2C(=O)N(C)C | inactive | inactive | inactive |
| C[C@@H]1CN([C@H](C)CO)C(=O)c2cc(NC(=O)c3ccncc3)ccc2O[C@@H](C)CCCCO[C@@H]1CN(C)C(=O)Nc1cccc2ccccc12 | inactive | inactive | inactive |
| C[C@H](CO)N1C[C@H](C)[C@@H](CN(C)C(=O)Nc2cccc3ccccc23)Oc2c(NS(=O)(=O)c3cccs3)cccc2C1=O | inactive | inactive | inactive |
| Cn1cccc1C(=O)N[C@H]1CN(S(C)(=O)=O)[C@H]2CCCO[C@@H]12 | inactive | inactive | inactive |
| COc1ccc(CN(C)C[C@@H]2Oc3c(NS(C)(=O)=O)cccc3C(=O)N([C@H](C)CO)C[C@H]2C)cc1 | inactive | inactive | inactive |
| C[C@@H]1CN([C@H](C)CO)C(=O)c2cc(NC(=O)C3CCCCC3)ccc2O[C@@H]1CN(C)Cc1ccc(C(=O)Nc2ccccc2N)cc1 | inactive | inactive | inactive |
| C[C@H](CO)N1C[C@H](C)[C@H](CN(C)C(=O)Nc2ccc(F)cc2)Oc2ccc(NC(=O)Cn3cnnn3)cc2CC1=O | inactive | inactive | inactive |
| Cc1noc(C)c1NC(=O)N(C)C[C@@H]1OCCCC[C@@H](C)Oc2ccc(NS(=O)(=O)c3ccc(F)cc3)cc2C(=O)N([C@@H](C)CO)C[C@H]1C | inactive | inactive | inactive |
| CC(C)NC(=O)Nc1ccc2c(c1)C(=O)N([C@@H](C)CO)C[C@H](C)[C@@H](CN(C)Cc1ccc(C(F)(F)F)cc1)OCCCC[C@@H](C)O2 | inactive | active | inactive |
| Cc1noc(C)c1NC(=O)N(C)C[C@@H]1OCCCC[C@@H](C)Oc2ccc(NC(=O)Cc3ccccc3)cc2C(=O)N([C@@H](C)CO)C[C@@H]1C | inactive | inactive | inactive |
| Br.Cc1ccc(Sc2ccccc2N2CCNCC2)c(C)c1 | inactive | active | inactive |
| C[C@@H]1CCCCO[C@@H](CN(C)C(=O)Nc2cccc3ccccc23)[C@H](C)CN([C@@H](C)CO)C(=O)c2cc(NS(=O)(=O)c3ccccc3)ccc2O1 | inactive | inactive | inactive |
| O=C(C[C@@H]1CC[C@H]2[C@@H](COC[C@@H](O)CN2S(=O)(=O)c2ccccc2)O1)N[C@H]1CCN(Cc2ccccc2)C1 | inactive | inactive | inactive |
| CC(C)NC(=O)N(C)C[C@H]1Oc2c(NC(=O)NC3CCCCC3)cccc2C(=O)N([C@@H](C)CO)C[C@@H]1C | inactive | inactive | inactive |

| SMILES | cytotoxicity call [1] | cytotoxicity call [2] | growth inhibition call [3] |
| --- | --- | --- | --- |
| C=CCC[C@H](Cc1ccc(F)cc1)C(=O)OC[C@@H](Cc1c[nH]c2ccccc12)NC(=O)[C@@H](CC=C)CC(=O)N[C@@H](CO)Cc1ccccc1 | inactive | inactive | inactive |
| C[C@@H]1CN([C@H](C)CO)C(=O)Cc2cc(NS(=O)(=O)c3cn(C)cn3)ccc2O[C@H]1CN(C)C(=O)Nc1ccccc1 | inactive | inactive | inactive |
| CC(=O)OCC(COC(C)=O)OC(C)=O | inactive | inactive | inactive |
| Cc1noc(C)c1NC(=O)Nc1ccc2c(c1)C(=O)N([C@H](C)CO)C[C@H](C)[C@H](CN(C)C(=O)Cc1ccccc1)OCCCC[C@@H](C)O2 | inactive | inactive | inactive |
| CNc1ccc(-c2nc(N3CCOCC3)c3sc(CN(C)c4ncc(C(=O)NO)cn4)cc3n2)cn1 | active | active | inactive |
| NC(CSCSCC(N)C(=O)O)C(=O)O (configuration not stated) | inactive | inactive | inactive |
| CN(C)CCCNC(=O)C[C@H]1C=C[C@@H](NC(=O)Cc2cccnc2)[C@@H](CO)O1 | inactive | inactive | inactive |
| C[C@H]1CN([C@@H](C)CO)S(=O)(=O)c2ccc(C3=CCCC3)cc2O[C@@H]1CN(C)S(=O)(=O)c1ccc(F)cc1 | inactive | inactive | inactive |
| CN(C)CCCNC(=O)[C@@]1(C)c2ccccc2C(=O)N(Cc2cc(F)cc(C(F)(F)F)c2)[C@H]1c1ccc(CO)cc1 | inactive | inactive | inactive |
| C[C@@H]1CN([C@@H](C)CO)C(=O)CCCn2cc(nn2)CO[C@@H]1CN(C)S(=O)(=O)c1ccc(Oc2ccccc2)cc1 | inactive | inactive | inactive |
| Cc1ccc(S(=O)(=O)N[C@H]2CC[C@H](CC(=O)NCc3ccc(Cl)c(Cl)c3)O[C@@H]2CO)cc1 | inactive | inactive | inactive |
| C[C@H]1CN([C@@H](C)CO)C(=O)c2cc(NC(=O)Cn3cnnn3)ccc2O[C@H]1CN(C)Cc1ccncc1 | inactive | inactive | inactive |
| Cc1noc(C)c1S(=O)(=O)Nc1ccc2c(c1)CC(=O)N([C@H](C)CO)C[C@@H](C)[C@H](CN(C)C(=O)Nc1ccc3c(c1)OCO3)O2 | inactive | inactive | inactive |
| CO[C@@H](CN(C)S(=O)(=O)c1cccc(Cl)c1)[C@@H](C)CN([C@H](C)CO)S(=O)(=O)c1ccc(Cl)cc1 | inactive | inactive | inactive |
| C[C@@H]1CCCCO[C@H](CN(C)Cc2ccc(Cl)c(Cl)c2)[C@H](C)CN([C@@H](C)CO)C(=O)c2cc(NC(=O)Nc3ccccc3)ccc2O1 | inactive | active | inactive |
| Cn1c(=O)[nH]c(=O)c2c1nc(N1CCN(CCO)CC1)n2CC(=O)c1ccccc1 | inactive | inactive | inactive |
| Cn1cnc(CCNC(=O)C[C@@H]2CC[C@@H]3[C@H](COC[C@H](O)CN3C(=O)Nc3ccc(C(F)(F)F)cc3)O2)c1 | inactive | inactive | active |
| C[C@@H]1CCCCO[C@@H](CN(C)C(=O)Nc2ccc(F)cc2)[C@@H](C)CN([C@H](C)CO)C(=O)c2cc(NC(=O)Nc3cccc4ccccc34)ccc2O1 | inactive | inactive | inactive |
| Cc1ccc(S(=O)(=O)Nc2ccc3c(c2)CC(=O)N([C@H](C)CO)C[C@H](C)[C@H](CN(C)Cc2ccncc2)O3)cc1 | inactive | inactive | inactive |
| C[C@@H]1CCCCO[C@@H](CN(C)C(=O)NC2CCCCC2)[C@@H](C)CN([C@H](C)CO)C(=O)c2cc(NC(=O)NC3CCCCC3)ccc2O1 | inactive | inactive | inactive |
| C[C@@H]1CN([C@H](C)CO)C(=O)c2cc(NS(C)(=O)=O)ccc2O[C@@H](C)CCCCO[C@H]1CN(C)Cc1ccncc1 | inactive | inactive | inactive |
| CN(Cc1ccccc1)C[C@H]1C[C@H](c2ccccc2)O[C@H](c2ccc(NC(=O)CCCCCCC(=O)O)cc2)O1 | inactive | inactive | inactive |
| C[C@@H]1CCCCO[C@@H](CN(C)C(=O)Nc2ccc3c(c2)OCO3)[C@H](C)CN([C@@H](C)CO)C(=O)c2cc(NC(=O)Nc3ccc(F)cc3)ccc2O1 | inactive | inactive | inactive |
| Cc1noc(C)c1NC(=O)Nc1ccc2c(c1)C(=O)N([C@@H](C)CO)C[C@@H](C)[C@H](CN(C)C(=O)Nc1ccc(C(F)(F)F)cc1)OCCCC[C@H](C)O2 | inactive | inactive | inactive |
| CCCCS(=O)(=O)NC1=NCN(CCO)CN1 | inactive | inactive | inactive |
| N[C@@H](C(=O)O)c1ccc(C(=O)O)c(C(=O)O)c1 | inactive | inactive | inactive |
| OC[C@H]1O[C@H]([S][Au])[C@H](O)[C@@H](O)[C@@H]1O | inactive | active | inactive |
